Experimental data published in the supplement of paper PMC10126150.
Values marked as one replicate rest on one cluster of the flow cell; about a third of the high ones do not repeat.

What follows are sequences tested on ATP (assay: switch fluorescence ratio, 500 uM ATP over buffer (Cy3 cluster intensity, sum of 5 cycles each) (fold (ratio)); higher = stronger signal-on switching upon ATP binding; sequences stand for … in TCGTCGGCAGCGTCAGATGTGTATAAGAGACAGTTTTTTTTTTTTTTTTTTTTTTTTT…TC). Conditions: aptamer strand: ATP DNA aptamer (quencher-CACCTGGGGGAGTATTGCGGAGGAAGG + anchor), 100 nM annealed; ATP concentration: 500 uM; one replicate.
Method in brief: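 After annealing to 100 nM quencher-labelled ATP aptamer, Cy3-labelled switching-strand clusters on a modified Illumina MiSeq flow-cell were imaged in selection buffer. A second image followed after 15 min with 500 uM ATP at 22 °C, and five such buffer/ATP cycles were done, each separated by NaOH stripping and re-annealing. The fluorescence ratio, averaged per switch-domain sequence, is summed target-cycle over summed buffer-cycle Cy3 intensity per cluster, with clusters outside 100-1000 RFU excluded.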
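Further: ATP exposure 15 min at 22 °C before imaging.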

Sequence	switch fluorescence ratio
GCATAAGGCG	1.02
GCATAAGGG	1.05
GCATAAGTGG	0.949
GCATACCATG	0.973
GCATACCGCC	1.31
GCATACTTAT	1.05
GCATAGATGT	1.02
GCATAGTATG	1.02
GCATAGTGCC	0.984
GCATATGCTT	1.01
GCATATTGCA	1.04
GCATCACATA	1.05
GCATCGTTAT	0.963
GCATCTGGAA	1.12
GCATGAGAG	0.957
GCATGAGAGC	0.987
GCATGATGC	0.994
GCATGCAGAC	1.06
GCATGGGGG	0.969
GCATGTGGCC	0.959
GCATGTTAAA	1.02
GCATGTTAGT	0.97
GCATTACCAG	1.09
GCATTATTAG	0.989
GCATTCATCG	0.996

Sequence	switch fluorescence ratio
GCATTCTTGA	0.987
GCATTGAATT	1.01
GCATTGAGCG	0.98
GCATTTAGGT	1
GCATTTGCAG	1.01
GCATTTTAGC	0.981
GCCAAAGTCA	0.993
GCCAAGAATA	1.1
GCCACCATAA	1.07
GCCAGAAATA	1.05
GCCAGAATAG	1.02
GCCAGATTTA	1.02
GCCAGGCAAA	1.06
GCCAGGCCAG	0.994
GCCAGGCTTC	0.994
GCCAGGGAGA	1.06
GCCAGTGACG	1.09
GCCAGTTAGG	1
GCCATAACTC	1.06
GCCATAGC	1.03
GCCATCAAAG	0.972
GCCATGGTAC	1.06
GCCATTACG	1.06
GCCATTCAGG	1.04
GCCATTTCGG	0.977

Sequence	switch fluorescence ratio
GCCCAAAAAT	0.991
GCCCAAATGT	1
GCCCAAGTTA	1.03
GCCCAGGACA	1.15
GCCCAGGGCA	1.19
GCCCAGTCAC	1.09
GCCCATGTGC	1.29
GCCCATGTTA	1.02
GCCCCAAATA	0.942
GCCCCACGAC	1.14
GCCCCAGGAG	4.33
GCCCCGCTAA	1.58
GCCCCGTGGG	1.02
GCCCCTGAGT	1.11
GCCCGACAGA	1.06
GCCCGCGGGG	0.974
GCCCGCTAAA	1.12
GCCCGTAGAG	1.03
GCCCTCACAC	1.12
GCCCTCGACA	1.03
GCCCTCGCTA	1.33
GCCCTGAGGT	1.04
GCCCTGGTTT	1.05
GCCCTTAGTT	0.994
GCCCTTCGGG	0.96

Sequence	switch fluorescence ratio
GCCGAACGAA	1.37
GCCGACCCTA	1.02
GCCGAGAAGG	1.02
GCCGAGACGT	0.983
GCCGAGCATC	1.52
GCCGATTATG	1.03
GCCGATTTGT	0.985
GCCGCCGCGC	1.38
GCCGCCGGGT	1.05
GCCGCGAGTT	1.08
GCCGCTCATT	1.02
GCCGGAGACA	0.983
GCCGGAGGTG	0.957
GCCGGATATC	1.03
GCCGGCGGC	1.05
GCCGGCGTAG	1.02
GCCGTAGCCG	1.05
GCCGTCCCCC	0.982
GCCGTCCCTA	0.99
GCCGTCTGTT	1.02
GCCGTCTTGT	0.981
GCCGTGTGGG	1.03
GCCGTTAAGA	1.01
GCCGTTGGC	1
GCCGTTTAGA	1.01

Sequence	switch fluorescence ratio
GCCTAAGC	0.977
GCCTAAGGA	0.944
GCCTAAGGTT	0.98
GCCTAAGTGC	0.958
GCCTAAGTTC	1.01
GCCTACGGAG	1.07
GCCTAGGGCG	0.986
GCCTATATAA	1.1
GCCTATCCAG	1.03
GCCTATGGTC	1.02
GCCTATTCTA	0.987
GCCTCACATT	0.966
GCCTCGATCA	1.04
GCCTCGTTAG	0.97
GCCTCTAAGG	1.02
GCCTCTGCAC	3.5
GCCTCTGCGG	1.2
GCCTGAAGGT	1.01
GCCTGCCGAC	1.82
GCCTGGAGC	1.01
GCCTGGAGTC	1.02
GCCTGGATTA	1
GCCTGGGGTT	1.03
GCCTTAAGGG	1.03
GCCTTAGACG	0.953

Sequence	switch fluorescence ratio
GCCTTCCGAA	3.85
GCCTTCTTCG	1.03
GCCTTGAATC	0.979
GCCTTGGCCG	0.957
GCCTTGGTCC	1.06
GCGAAGGGCT	1.01
GCGAATGGCC	1.1
GCGAATTTAT	0.978
GCGACGCTCC	2.24
GCGACGGCGT	1
GCGACTCTAG	1
GCGACTTTAC	1.79
GCGAGACT	1.17
GCGAGATAGT	1.02
GCGAGCCGCT	1.02
GCGAGGACGC	1.09
GCGAGGCAAG	1.39
GCGAGTAGGT	0.984
GCGAGTCTTC	0.977
GCGATAGATA	0.98
GCGATAGCAT	0.976
GCGATCAGTC	1
GCGATGGTTG	0.966
GCGATTAATT	1.01
GCGATTACTA	1.02

Sequence	switch fluorescence ratio
GCGATTGTAC	1.27
GCGATTGTGG	1.01
GCGCAACGTC	1.14
GCGCAAGAT	1.66
GCGCACCCTG	1.01
GCGCAGATTT	1
GCGCAGGGAA	0.973
GCGCAGTTGC	1.74
GCGCAGTTTC	1.31
GCGCCAATTG	1.05
GCGCCAGAGA	1.02
GCGCCCGTTT	1.05
GCGCCCTGAG	1.05
GCGCCGGGGT	0.988
GCGCCTTGAT	0.996
GCGCGATTGT	1.04
GCGCGCGTAC	1.21
GCGCGGACTG	1
GCGCGGCTAA	1.01
GCGCGGCTGA	0.962
GCGCGGGGAC	1.07
GCGCGGTAGC	0.983
GCGCGGTCGA	0.991
GCGCTGCATC	1.15
GCGCTGGTTG	0.983

Sequence	switch fluorescence ratio
GCGCTTTAGG	1.03
GCGGACGGGA	1.01
GCGGACTAGG	0.967
GCGGAGAAAG	0.985
GCGGAGATTG	1.01
GCGGATTAA	1.04
GCGGCAAGCC	1.17
GCGGCACCGG	0.963
GCGGCAGGTG	2.41
GCGGCAGGTT	0.976
GCGGCCTGGC	0.951
GCGGCCTTAG	1.01
GCGGCGCGTA	0.846
GCGGCTAAAG	1.05
GCGGCTAGGC	1.04
GCGGGCTATA	1.01
GCGGGGATGG	0.96
GCGGGGCGCT	1.06
GCGGGGCGG	1.04
GCGGGTAAGT	1.03
GCGGGTCTAC	1.02
GCGGGTGGCC	1.06
GCGGTAAGTT	1
GCGGTACCGA	1.04
GCGGTAGCGG	1.03
